PubChem BioAssay AID1345083 (National Center for Advancing Translational Sciences (NCATS), 2018)
The whole screen tested about 94,000 compounds, of which about 6,200 (6.6%) were called active. Inconclusive results, whose numbers are uncertain, are shown with a selection of clear calls. Calls follow the shape of the dose curve; as a rule, active = well fitted inhibition curve with a large enough effect; inconclusive = small, poorly fitted or top-dose-only effect; inactive = flat fitted curve, though single readings scatter. A potency beside an inconclusive call is a rough fit, not a confirmed value.

Assay: Cytotoxic Profiling in HEK 293 Cell Line of Diverse Libraries Using Quantitative High-Throughput Screening; also: nearly all actives have a fitted effect of over 60% in size
Details: HEK 293 viability, ATP luminescence (CellTiter-Glo), 48-72 h; series mostly up to 115 µM
How it was run: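 Pintool-delivered compounds were incubated with HEK 293 cells (250 cells/well) at 37 degree Celsius for 48 or 72 hr. ATP-dependent luminescence (CellTiter-Glo) then reported remaining viable cells.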
Potency is read from the fitted curve at half-maximal effect; tags tell the direction and shape of the fitted curve.

Row | SMILES | Potency
1 | CN1CCCC2(C1)CN(Cc1cccnc1)c1ccc(C(=O)NCc3cccs3)cc12 (centres undefined) | inconclusive: 126 µM [inhibitor, single point]
2 | COc1ccc(CCNC(=O)c2noc(-c3ccccc3F)n2)cc1OC | active: 31.6 µM
3 | COc1ccc(C(=O)Nc2ccc([C@@H](O)[C@H]3COCC(=O)N3CC3CCCCC3)cc2)cc1 | active: 35.5 µM
4 | Cn1ncc2c(C(=O)Nc3ccc(F)cc3)cc(-c3ccccc3F)nc21 | inconclusive: 50.1 µM [inhibitor, partial curve, poor fit]
5 | COc1ccc(C(=O)N[C@H](Cc2ccccn2)C2CC(O)C2)cc1F (some centres undefined) | inactive
6 | O=C([C@H]1CCC[C@@H](O)C1)N1CCN(c2ccc3nccn3n2)CC1 | inactive
7 | CC1=C[C@@H](CNC(=O)c2ccnc(Cl)c2)[C@H](C(C)C)C[C@H]1Cc1nc2ccc(C)cc2[nH]1 | inconclusive: 20 µM [inhibitor, full curve, poor fit]
8 | O=C(c1ccc2nnc(C3CC3)n2c1)N1CCOCC1 | inactive
9 | O=c1c2nc(-c3cccnc3)ccc2ncn1-c1ccc(F)cc1F | active: 70.8 µM
10 | CN1CCC2(C1)CN(CC1CC1)c1ccc(C(=O)NCc3cccs3)cc12 (centres undefined) | active: 100 µM
11 | COCc1ccc2c(c1)c(OC(C)(C)C(=O)NCc1cnccn1)nn2Cc1cccc(OC)c1 | inconclusive: 39.8 µM [inhibitor, full curve, poor fit]
12 | N#Cc1ccc(C(=O)N2CCOC[C@H](Oc3ccc(C(F)(F)F)cc3)C2)cc1 | inconclusive: 63.1 µM [inhibitor, partial curve, poor fit]
13 | O=C1NC(=NC2CCCCC2)C2(CCCN([S+](=O)([O-])c3ccccc3)C2)N1c1cccnc1 (centres undefined) | inactive
14 | CCOc1ccccc1C(=O)N1CCCN(c2cc(-c3ccc(Cl)cc3)[nH]n2)CC1 | inconclusive: 50.1 µM [inhibitor, partial curve, poor fit]
15 | O=C(c1ccccc1-c1ccccc1F)N(Cc1cccnc1)C1CC1 | inconclusive: 10 µM [inhibitor, full curve, poor fit]
16 | O=C1N(Cc2cccc(F)c2F)CCCC1(O)CNCc1ccccc1 (centres undefined) | inactive
17 | Cc1cccc(N2CCN(C(=O)CN3CC4(CCCCC4)CC3=O)CC2)n1 | inconclusive: 79.4 µM [inhibitor, partial curve, poor fit]
18 | COCCn1c(C)cnc1CCNC(=O)c1cccc(C)c1 | inconclusive: 39.8 µM [inhibitor, single point]
19 | Cc1nn(-c2ccc(F)cc2)c(C)c1[C@@H]1C=C[C@@H](NC(=O)c2ccco2)C1 | inconclusive: 44.7 µM [inhibitor, partial curve, poor fit]
20 | CO[C@H]1[C@H](NC(=O)c2cc3ccccc3n2C)c2ccccc2C12CCNCC2 | active: 35.5 µM
21 | COc1ccc(C(=O)N2CCC3(CC2)N(C)C(=O)CS3(=O)=O)cc1F | inactive
22 | Cc1ccc(NC(=O)C2CC(=O)N(c3n[nH]c4ccccc34)C2)nc1 (centres undefined) | inactive

Row | SMILES | Potency
23 | COc1ccc(-c2noc([C@@H]3C[C@@H](O)CN3Cc3ccccc3)n2)cc1 | inconclusive: 112 µM [inhibitor, partial curve, poor fit]
24 | O=C(CCC1CCN(C(=O)c2ccccc2)CC1)Nc1ccc(F)c(F)c1 | inconclusive: 50.1 µM [inhibitor, partial curve, poor fit]
25 | Cc1nc(N2CCC(NCCc3cccnc3)CC2)c2ccsc2n1 | inconclusive: 56.2 µM [inhibitor, partial curve, poor fit]
26 | COCC(=O)N1CCC(C(NC(=O)c2ccccc2)C(=O)N2CCCCC2)CC1 (centres undefined) | inactive
27 | COc1ccccc1C(=O)N1CCN(c2cc(-c3cccs3)[nH]n2)CC1 | inconclusive: 89.1 µM [inhibitor, single point]
28 | COc1ccccc1Nc1ccnc(N2CCC[C@H]2C(=O)NC2CCCCC2)n1 | inconclusive: 50.1 µM [inhibitor, partial curve]
29 | CCC(=O)N1CCC(Oc2ncccc2C(=O)N(C)C)C1 (centres undefined) | inactive
30 | CN(C)CC1(O)CCC2(CCN(C(=O)c3cccc(F)c3)CC2)CC1 | inactive
31 | O=C(NCCN[S+](=O)([O-])c1cccc(C(F)(F)F)c1)c1cccc(-c2ccsc2)c1 | inconclusive: 50.1 µM [inhibitor, partial curve, poor fit]
32 | Cc1ncsc1C(=O)N1CC(CNC(=O)Cc2ccccc2)C2(C1)CN(c1ccccc1)C2 (centres undefined) | inactive
33 | Fc1ccccc1CN1CCOC[C@H]1c1ncc(-c2ccc(Cl)s2)[nH]1 | inconclusive: 100 µM [inhibitor, partial curve]
34 | O=C1COc2ccc(-c3ccccc3F)nc2CN1Cc1ccccc1 | inconclusive: 89.1 µM [inhibitor, partial curve]
35 | COc1ccc(C)cc1NC(=O)N1CCCC1c1nncn1C1CCCC1 (centres undefined) | inactive
36 | O=C(N1CCC(Cc2ccccc2)CC1)C1(c2ccc(Cl)cc2)CCOCC1 | inconclusive: 50.1 µM [inhibitor, partial curve, poor fit]
37 | COc1ccccc1-c1[nH]nc2ncc(CN(C)Cc3ccccc3)nc12 | inconclusive: 100 µM [inhibitor, partial curve, poor fit]
38 | Cc1noc2c(Nc3ccc(C(N)=O)cc3)cc(-c3ccc(F)cc3)nc12 | inactive
39 | O=S(=O)(c1ccc(F)c(F)c1)N1CCC(C2CCNC2)CC1 (centres undefined) | inconclusive: 89.1 µM [inhibitor, single point]
40 | Cc1nc(N2CCN(C(=O)Cc3ccccc3Cl)CC2)cc(C(F)(F)F)n1 | inconclusive: 79.4 µM [inhibitor, single point]
41 | COc1ccccc1OCCNC(=O)[C@H]1CCC[C@H]1NC(=O)c1cnc(C)cn1 | inactive
42 | CCNC(=O)c1c(C)oc2c1CN(Cc1ccc(Br)o1)CC2 | inconclusive: 50.1 µM [inhibitor, partial curve, poor fit]
43 | Cc1ccc(C(=O)N2CCN(c3cc(-c4ccc(Cl)cc4)[nH]n3)CC2)c(C)c1 | inconclusive: 22.4 µM [inhibitor, partial curve, poor fit]
44 | c1ccc(C2=NOC3(CCCN(Cc4cccc5ccccc45)C3)C2)nc1 (centres undefined) | inconclusive: 50.1 µM [inhibitor, partial curve, poor fit]

Row | SMILES | Potency
45 | O=C(c1ccccc1)N1CCC(C(=O)N2CCC(c3nc4ccncc4[nH]3)C2)CC1 (centres undefined) | inactive
46 | COC(=O)C1=C(C)N=C2SC=C(CC(=O)NC3CC3)N2C1c1cccc(OC)c1 (centres undefined) | inconclusive: 89.1 µM [inhibitor, partial curve, poor fit]
47 | COc1ccc2cc(C3CN(C(=O)c4ccc(C)cc4OC)CCO3)ccc2c1 (centres undefined) | active: 22.4 µM
48 | CN(C)c1nccnc1OC1CCN(C(=O)CCC(=O)c2ccc(F)cc2)C1 (centres undefined) | inconclusive: 50.1 µM [inhibitor, partial curve, poor fit]
49 | Cc1ccc(CN(C(=O)c2ccco2)c2ccc(CC(=O)NC(C)C)cc2)cc1 | inconclusive: 22.4 µM [inhibitor, partial curve, poor fit]
50 | O=C(NCc1ccccn1)c1ccc2nnc(-c3cc(C(F)(F)F)cc(C(F)(F)F)c3)n2c1 | inconclusive: 89.1 µM [inhibitor, single point]
51 | Cn1ncc2c(C(=O)NCc3cccnc3)cc(-c3cccc(C(F)(F)F)c3)nc21 | active: 50.1 µM
52 | COc1ccc(C(=O)N2CCN(C(=O)c3nnn4c3COC(c3ccc(Cl)cc3)C4)CC2)c(C)c1 (centres undefined) | inconclusive: 50.1 µM [inhibitor, partial curve, poor fit]
53 | COc1ccc(C(=O)NCCn2ccn3nc(-c4cc(C)ccc4C)cc3c2=O)cc1F | inconclusive: 89.1 µM [inhibitor, single point]
54 | O=C(c1ccccc1OCC1CCCNC1)N1CCCCC1 (centres undefined) | inconclusive: 17.8 µM [inhibitor, full curve, poor fit]
55 | COc1ccc(-n2c(=O)c(C(=O)NCc3ccc(F)cc3)nc3cccnc32)cc1 | inconclusive: 56.2 µM [inhibitor, partial curve, poor fit]
56 | COc1cccc(C(=O)N2CCC3(CC2)CCN(CCc2ccccc2)c2ccccc2O3)c1 | inconclusive: 50.1 µM [inhibitor, partial curve, poor fit]
57 | C=CCn1cc2c3c(cccc31)[C@H](CC(C)C)N[C@H](C(=O)NCCN(C)C)C2 | active: 35.5 µM
58 | Cc1nn(-c2ccccc2)c2c1C(C)N(C1CCN(C(=O)c3cccc(Cl)c3)CC1)C2=O (centres undefined) | inconclusive: 39.8 µM [inhibitor, partial curve, poor fit]
59 | O=C(NCc1ccccn1)c1ccc2nnc(Cc3ccc(Cl)cc3)n2c1 | inactive
60 | O=C(Cc1c[nH]c2ncc(-c3ccccc3)cc12)Nc1ccc(Cl)cc1 | inconclusive: 50.1 µM [inhibitor, partial curve, poor fit]
61 | Cc1nc2ncccn2c1C(=O)N1CCC(c2[nH]ncc2-c2ccccc2)CC1 | inconclusive: 44.7 µM [inhibitor, partial curve, poor fit]
62 | CC(=O)Nc1ccc(CNC2(Cc3cc(CN4CCN(c5ccccc5)CC4)on3)COC2)cc1 | inconclusive: 89.1 µM [inhibitor, single point]
63 | COc1ccc(CN2C(=O)[C@H](OC)[C@@H]2C2=CCN(C(=O)c3ccc(OC)cc3)CC2)cc1 | inconclusive: 79.4 µM [inhibitor, partial curve, poor fit]
64 | O=[S+]1([O-])NC2(CCCN(Cc3ccsc3)C2)CNc2ccccc21 (centres undefined) | inactive
